Measured values reported in PubChem BioAssay AID504332 (National Center for Advancing Translational Sciences (NCATS), 2011).
Several values for one entry are separate records, joined by “and”; a condition that tells them apart may be missing. Equal entries are not always repeated. The campaign covered roughly 350,000 compounds. About 31,000 (8.9%) were called active. The inconclusive results got no clear call from the source; some entries with a clear call stand among them for comparison. Calls follow the shape of the dose curve; as a rule, active = well fitted inhibition curve with a large enough effect; inconclusive = small, poorly fitted or top-dose-only effect; inactive = no such curve, though single readings can be large or run the other way. A potency beside an inconclusive call is a rough fit, not a confirmed value. Some structures have more than one record in an assay (separate samples or runs), and their calls can disagree.

Molecular target: Histone-lysine N-methyltransferase EHMT2 (Homo sapiens) (UniProt Q96KQ7)
Test: qHTS Assay for Inhibitors of Histone Lysine Methyltransferase G9a; also: nearly all actives have a fitted effect of over 75% in size
Conditions: G9a H3K9 monomethylation, AlphaScreen, 2 h; activity, negative = inhibition: at 59 µM (top of the series) unless noted
How it was run: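 AlphaScreen read-out: biotin-H3K9 peptide (500 nM) methylation by 20 nM enzyme with 20 uM SAM, 2 h at room temperature after 15 min compound preincubation; anti-monomethyl H3K9 antibody plus donor/acceptor beads, 10 min dark.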
% is scaled to controls: 0 for no effect and ±100 for the full control effect; potency is read from the fitted curve at half-maximal effect; tags tell the direction and shape of the fitted curve.

Chain of UniProt Q96KQ7 (Q96KQ7 whole entry, looked up): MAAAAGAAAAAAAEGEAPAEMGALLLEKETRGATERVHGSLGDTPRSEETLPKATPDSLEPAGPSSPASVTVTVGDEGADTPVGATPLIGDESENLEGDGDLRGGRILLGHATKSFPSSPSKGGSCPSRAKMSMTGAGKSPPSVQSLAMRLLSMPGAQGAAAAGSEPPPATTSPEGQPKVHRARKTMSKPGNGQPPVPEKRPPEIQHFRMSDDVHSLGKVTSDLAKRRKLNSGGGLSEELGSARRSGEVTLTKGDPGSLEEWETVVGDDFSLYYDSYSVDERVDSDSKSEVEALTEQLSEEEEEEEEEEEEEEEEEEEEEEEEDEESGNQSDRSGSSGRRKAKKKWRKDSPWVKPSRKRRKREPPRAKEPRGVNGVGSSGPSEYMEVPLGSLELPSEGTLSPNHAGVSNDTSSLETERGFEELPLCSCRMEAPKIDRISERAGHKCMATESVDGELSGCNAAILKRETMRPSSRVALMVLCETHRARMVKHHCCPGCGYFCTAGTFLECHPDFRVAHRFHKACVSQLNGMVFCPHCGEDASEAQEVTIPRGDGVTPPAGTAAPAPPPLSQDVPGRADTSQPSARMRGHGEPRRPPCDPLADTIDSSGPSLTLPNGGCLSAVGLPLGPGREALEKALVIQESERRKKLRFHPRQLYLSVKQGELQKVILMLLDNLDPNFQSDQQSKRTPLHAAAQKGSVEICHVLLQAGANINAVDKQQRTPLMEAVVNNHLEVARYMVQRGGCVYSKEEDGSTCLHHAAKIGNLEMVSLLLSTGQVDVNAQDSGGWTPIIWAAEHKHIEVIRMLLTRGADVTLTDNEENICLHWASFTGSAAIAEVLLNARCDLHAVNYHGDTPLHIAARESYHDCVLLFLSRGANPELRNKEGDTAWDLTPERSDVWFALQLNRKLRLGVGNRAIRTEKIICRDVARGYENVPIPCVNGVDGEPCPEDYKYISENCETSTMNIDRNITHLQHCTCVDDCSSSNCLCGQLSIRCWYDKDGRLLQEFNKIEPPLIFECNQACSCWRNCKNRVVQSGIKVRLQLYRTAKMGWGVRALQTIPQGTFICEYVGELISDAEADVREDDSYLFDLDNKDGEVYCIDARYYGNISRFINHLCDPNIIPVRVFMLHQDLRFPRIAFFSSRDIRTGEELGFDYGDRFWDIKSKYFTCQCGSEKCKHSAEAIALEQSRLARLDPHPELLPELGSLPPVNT

Question: `Cc1ccc2nc(-c3ccc(NC(=O)CN4C(=O)NC(C)(c5ccc(OC(F)F)cc5)C4=O)cc3)sc2c1` (centres undefined) was tested. Which Potency did it give?
Answer: Its Potency is inconclusive: 39.8 µM [inhibitor, partial curve, poor fit].

Question: How did the Potency turn out when `CC(=O)c1ccc(Oc2ncnc3sccc23)c(CN2CCOCC2)c1` was run?
Answer: The Potency was inconclusive: 39.8 µM [inhibitor, single point].

Question: Which Potency does the source give for `CCCCC/C=C/C=C1/C(=O)C=C[C@@H]1C/C=C\CCCC(=O)O` here?
Answer: Its Potency is active: 20 µM and active: 22.4 µM.

Question: With `Nc1nccnc1C(=O)OCC(=O)NNC(=O)c1ccccc1` as the molecule, how does the Potency read?
Answer: Its Potency is inconclusive: 50.1 µM [inhibitor, partial curve, poor fit].

Question: Which Potency does the source give for `CC(C)n1c(N2CCN(C(=O)Nc3ccc(Cl)cc3)CC2)nc2ccccc21` here?
Answer: Its Potency is “inactive”.

Question: `C=CC(C)n1c(Br)nc2c1c(=O)[nH]c(=O)n2C` (centres undefined) was tested. Which Potency did it give?
Answer: The Potency was inconclusive: 3.98 µM [inhibitor, single point].

Question: Which Potency does the source give for `FC(F)(F)Oc1ccc(NC(=S)NCCCN2CCOCC2)cc1` here?
Answer: The Potency was active: 50.1 µM.

Question: For `CCOc1ccc(C(=O)N2CC(=O)Nc3ccc(C)cc3C2c2ccc(F)cc2)cc1OCC` (centres undefined), which Potency is on record?
Answer: Its Potency is “inactive”.

Question: With `COc1ccc(OC)c(NC(=O)CCN2CCCCCC2)c1` as the molecule, how does the Potency read?
Answer: Its Potency is inconclusive: 39.8 µM [inhibitor, single point].

Question: `COCCCNC(=O)CCCn1c(SCC(=O)c2ccc(Br)cc2)nc2c(sc3ccccc32)c1=O` was tested. Which Potency did it give?
Answer: Its Potency is “inactive”.

Question: `Cc1ccccc1C(=O)N1CCC(C(=O)N(CC(C)C)c2c(N)n(Cc3ccccc3)c(=O)[nH]c2=O)CC1` was tested. Which Potency did it give?
Answer: Its Potency is inconclusive: 89.1 µM [inhibitor, partial curve, poor fit].

Question: With `COc1ccc(C(=O)NNC(=O)C(=O)Nc2ccc(C)cc2)cc1` as the molecule, how does the Potency read?
Answer: Its Potency is “inactive”.

Question: For `Cc1cc(=O)n2[nH]c(N3C(=O)CCC3=O)nc2n1`, which Potency is on record?
Answer: Its Potency is inconclusive: 89.1 µM [inhibitor, single point].

Question: `Cc1cc(=O)[nH]c(N/N=C/C2=C(N3CCOCC3)C(=C\c3ccc(Cl)cc3)/CC2)n1` was tested. Which Potency did it give?
Answer: The Potency was active: 7.94 µM.

Question: `O=C1NC2(CCC3(CC2)OCCO3)NN1c1ccccc1` was tested. Which Potency did it give?
Answer: Its Potency is inconclusive: 89.1 µM [inhibitor, partial curve, poor fit].

Question: Which Potency does the source give for `NC(=O)c1cccc(NC(=O)CCCCC(=O)Nc2cccc(C(N)=O)c2)c1` here?
Answer: Its Potency is inconclusive: 44.7 µM [inhibitor, single point].

Question: Which Potency does the source give for `COc1ccccc1C(=O)Nc1cccc(OCc2cc(=O)n3ccccc3n2)c1` here?
Answer: The Potency was “inactive”.

Question: `c1ccc(CN2CCN(c3nc4ccccc4s3)CC2)cc1` was tested. Which Potency did it give?
Answer: The Potency was “inactive”.

Question: Which Potency does the source give for `N#Cc1c(-c2ccc(Cl)cc2)cc(-c2ccccc2)nc1SCC(=O)O` here?
Answer: Its Potency is inconclusive: 79.4 µM [inhibitor, single point].

Question: `COC(=O)c1ccc(NC(=O)c2cnn(-c3ccc(Cl)cc3)c2C2CCN(C(=O)OC(C)(C)C)CC2)cc1` was tested. Which Potency did it give?
Answer: The Potency was “inactive”.

Question: `CCOCCCNC(=O)c1ccc(Cn2c(=S)[nH]c3c([nH]c4ccc(OC)cc43)c2=O)cc1` was tested. Which Potency did it give?
Answer: The Potency was inconclusive: 1.41 µM [inhibitor, full curve, poor fit].

Question: Which Potency does the source give for `CCSc1ccccc1C(=O)N1CCN(c2nc3ccccc3s2)CC1` here?
Answer: The Potency was “inactive”.

Question: With `CC1CCCC(C)N1C(=O)COC(=O)CNC(=O)C12CC3CC(CC(C3)C1)C2` (centres undefined) as the molecule, how does the Potency read?
Answer: The Potency was inconclusive: 39.8 µM [inhibitor, partial curve, poor fit].

Question: Which Potency does the source give for `CS(=O)(=O)c1ccc(NCCc2ccccn2)c([N+](=O)[O-])c1` here?
Answer: The Potency was “inactive”.

Question: How did the Potency turn out when `Oc1ccc(Br)cc1-c1cc(-c2ccccc2)n[nH]1` was run?
Answer: The Potency was “inactive”.

Question: `COC(=O)[C@H]1[C@H]2C[C@@H]3c4[nH]c5cc(OC)ccc5c4CCN3C[C@H]2C[C@@H](OC(=O)c2ccc(N)cc2)[C@@H]1OC` was tested. Which Potency did it give?
Answer: The Potency was inconclusive: 35.5 µM [inhibitor, single point].

Question: `O=C(NC(=S)Nc1ccc(S(=O)(=O)Nc2nccs2)cc1)c1cccnc1` was tested. Which Potency did it give?
Answer: The Potency was active: 44.7 µM.

Question: How did the Potency turn out when `Cc1ccc(-c2nc3ccccn3c2NCc2ccc3c(c2)OCO3)cc1` was run?
Answer: Its Potency is inconclusive: 8.91 µM [inhibitor, single point].

Question: For `N[C@@H](CS(=O)O)C(=O)O`, which Potency is on record?
Answer: The Potency was “inactive and active: 15.8 µM and active: 21.2 µM”.

Question: For `COc1cc(NC(=S)NCCC(c2ccccc2)c2ccccc2)c(OC)cc1Cl`, which Potency is on record?
Answer: The Potency was inconclusive: 79.4 µM [inhibitor, single point].

Question: How did the Potency turn out when `CC1CCC(C(C)C)C(=O)/C1=C/c1ccc(N)cc1` (centres undefined) was run?
Answer: The Potency was inconclusive: 44.7 µM [inhibitor, partial curve].

Question: With `CN1C(=O)CC(C(=O)O)SC1=Nc1cc(Cl)cc(Cl)c1` (centres undefined) as the molecule, how does the Potency read?
Answer: The Potency was inconclusive: 89.1 µM [inhibitor, single point].

Question: For `C[C@H](NC(=O)C1CCN(S(=O)(=O)c2ccccc2)CC1)C(=O)NCc1cccc(Cl)c1`, which Potency is on record?
Answer: The Potency was inconclusive: 0.891 µM [inhibitor, full curve, poor fit].

Question: Which Potency does the source give for `CC(C)c1ccc(NC(=O)C2CC2c2ccccc2)cc1` (centres undefined) here?
Answer: Its Potency is inconclusive: 28.2 µM [inhibitor, single point].

Question: `CCCN=C1NC(=O)C(CC(=O)NCCc2ccccc2)S1` (centres undefined) was tested. Which Potency did it give?
Answer: Its Potency is inconclusive: 89.1 µM [inhibitor, partial curve, poor fit].

Question: For `C#C[C@]1(O)CCC2C3CCC4=C(CCC(=O)C4)C3CC[C@@]21C` (some centres undefined), which activity, negative = inhibition is on record?
Answer: Its activity, negative = inhibition is inactive: -37.3% [at 2.33 µM].

Question: For `CS(=O)(=O)N1CCC2(CC1)CN(C(c1ccccc1)c1ccccc1)C2`, which activity, negative = inhibition is on record?
Answer: Its activity, negative = inhibition is inactive: -2.67% [at 12.7 µM].

Question: For `Cc1nn(Cc2ccccc2)c2c1C(c1ccncc1)C(C#N)=C(N)O2` (centres undefined), which Potency is on record?
Answer: The Potency was inconclusive: 31.6 µM [inhibitor, single point].

Question: For `O=C(O)Cn1c(-c2ccccn2)nc2ccccc21`, which Potency is on record?
Answer: The Potency was inconclusive: 56.2 µM [inhibitor, partial curve, poor fit].

Question: How did the Potency turn out when `Cc1cc(C(=O)O)c(=O)[nH]c1C` was run?
Answer: The Potency was active: 70.8 µM.

Question: `O=S(=O)(N/N=C\c1ccccc1O)c1ccc(Cl)cc1` was tested. Which Potency did it give?
Answer: The Potency was inconclusive: 35.5 µM [inhibitor, partial curve].

Question: How did the activity, negative = inhibition turn out when `O=C(NCC(c1ccco1)N1CCCC1)c1cccc(S(=O)(=O)Nc2ccc(F)cc2)c1` (centres undefined) was run?
Answer: Its activity, negative = inhibition is inactive: 30% [at 12.7 µM].

Question: How did the Potency turn out when `O=C(O)/C=C/C(=O)NCc1cn(-c2ccccc2)nc1-c1cccc(Br)c1` was run?
Answer: Its Potency is active: 35.5 µM.

Question: How did the Potency turn out when `Cc1ccc(NC(=O)CSc2ncc(-c3ccccc3)n2C(=O)c2ccccc2)cc1` was run?
Answer: The Potency was inconclusive: 25.1 µM [inhibitor, partial curve, poor fit].
